# The supplement of paper PMC8728848
# Some of the results follow.
# B1: AidA (Burkholderia cenocepacia) (protein)
# chain: MSRVTDVLVSFDTETILKKYPNPSKNPAAPTLIDWRYVYMVTNQDNVISGQAGGELDLKAQVGDLIRWRETSLSLGFENQVVFYKFIGNVGNDLISTPTPRVAEASIPVPNTSKPEVPTCQKVANYYWSSECLKVGRVTYHFQFQIIDRNCQSQGCFSWDPFISIHN
# Columns and labels:
# Assay in all cases: glycan array binding signal (z-score within array); higher = stronger binding
# Settings in all cases: glycan notation: IUPAC condensed, linker removed
# [1] = biological target: Neu5Ac(a2-6)Gal(b1-4)GlcNAc(b1-3)Gal(b1-4)GlcNAc(b1-3)Gal(b1-4)GlcNAc(b1-2)Man(a1-3)[Neu5Ac(a2-6)Gal(b1-4)GlcNAc(b1-3)Gal(b1-4)GlcNAc(b1-3)Gal(b1-4)GlcNAc(b1-2)Man(a1-6)]GalNAc
# Procedure, shortened: (§1)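 From the Consortium for Functional Glycomics database, 3228 arrays were curated, keeping only those whose protein sequence was available. Binding is given as a within-array Z-score averaged across arrays sharing a protein sequence and across linkers. Negative Z-scores can be read as non-binding.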
# [2] = biological target: Neu5Ac(a2-6)Gal(b1-4)GlcNAc(b1-3)Gal(b1-4)GlcNAc(b1-3)GalNAc
# Procedure, shortened: as §1
# [3] = biological target: Neu5Ac(a2-6)Gal(b1-4)GlcNAc(b1-3)Gal(b1-4)GlcNAc(b1-3)[Neu5Ac(a2-6)Gal(b1-4)GlcNAc(b1-3)Gal(b1-4)GlcNAc(b1-6)]GalNAc
# Procedure, shortened: as §1
# [4] = biological target: Neu5Ac(a2-6)Gal(b1-4)GlcNAc(b1-3)Gal(b1-4)GlcNAc(b1-6)[Gal(b1-3)]GalNAc
# Procedure, shortened: as §1
# [5] = biological target: Neu5Ac(a2-6)Gal(b1-4)GlcNAc(b1-3)Gal(b1-4)[Fuc(a1-3)]GlcNAc(b1-3)Gal(b1-4)[Fuc(a1-3)]GlcNAc
# Procedure, shortened: as §1
# [6] = biological target: Neu5Ac(a2-6)Gal(b1-4)GlcNAc(b1-3)GalNAc
# Procedure, shortened: as §1
# [7] = biological target: Neu5Ac(a2-6)Gal(b1-4)GlcNAc(b1-3)[Neu5Ac(a2-6)Gal(b1-4)GlcNAc(b1-6)]GalNAc
# Procedure, shortened: as §1
# [8] = biological target: Neu5Ac(a2-6)Gal(b1-4)GlcNAc(b1-6)GalNAc
# Procedure, shortened: as §1
# [9] = biological target: Neu5Ac(a2-6)Gal(b1-4)GlcNAc(b1-6)[Gal(b1-3)GlcNAc(b1-3)]Gal(b1-4)Glc
# Procedure, shortened: as §1
# [10] = biological target: Neu5Ac(a2-6)Gal(b1-4)GlcNAc(b1-6)[Gal(b1-3)]GalNAc
# Procedure, shortened: as §1
# [11] = biological target: Neu5Ac(a2-6)Gal(b1-4)GlcNAc6S
# Procedure, shortened: as §1
# [12] = biological target: Neu5Ac(a2-6)GalNAc
# Procedure, shortened: as §1
# [13] = biological target: Neu5Ac(a2-6)GalNAc(b1-4)GlcNAc
# Procedure, shortened: as §1
# [14] = biological target: Neu5Ac(a2-6)GalNAc(b1-4)GlcNAc6S
# Procedure, shortened: as §1
# [15] = biological target: Neu5Ac(a2-6)GlcNAc(b1-4)GlcNAc
# Procedure, shortened: as §1
# [16] = biological target: Neu5Ac(a2-6)GlcNAc(b1-4)GlcNAc(b1-4)GlcNAc
# Procedure, shortened: as §1
# [17] = biological target: Neu5Ac(a2-8)Neu5Ac
# Procedure, shortened: as §1
# [18] = biological target: Neu5Ac(a2-8)Neu5Ac(a2-3)Gal(b1-3)GalNAc(b1-4)[Neu5Ac(a2-3)]Gal(b1-4)Glc
# Procedure, shortened: as §1
# [19] = biological target: Neu5Ac(a2-8)Neu5Ac(a2-3)Gal(b1-3)GalNAc(b1-4)[Neu5Ac(a2-8)Neu5Ac(a2-3)]Gal(b1-4)Glc
# Procedure, shortened: as §1
# [20] = biological target: Neu5Ac(a2-8)Neu5Ac(a2-3)Gal(b1-4)Glc
# Procedure, shortened: as §1
# [21] = biological target: Neu5Ac(a2-8)Neu5Ac(a2-3)Gal(b1-4)GlcNAc
# Procedure, shortened: as §1
# [22] = biological target: Neu5Ac(a2-8)Neu5Ac(a2-3)[Gal(b1-3)GalNAc(b1-4)]Gal(b1-4)Glc
# Procedure, shortened: as §1
# [23] = biological target: Neu5Ac(a2-8)Neu5Ac(a2-3)[GalNAc(b1-4)]Gal(b1-4)Glc
# Procedure, shortened: as §1
# [24] = biological target: Neu5Ac(a2-8)Neu5Ac(a2-8)Neu5Ac
# Procedure, shortened: as §1
# [25] = biological target: Neu5Ac(a2-8)Neu5Ac(a2-8)Neu5Ac(a2-3)Gal(b1-4)Glc
# Procedure, shortened: as §1
# [26] = biological target: Neu5Ac(a2-8)Neu5Ac(a2-8)Neu5Ac(a2-3)[Gal(b1-3)GalNAc(b1-4)]Gal(b1-4)Glc
# Procedure, shortened: as §1
# [27] = biological target: Neu5Ac(a2-8)Neu5Ac(a2-8)Neu5Ac(a2-3)[GalNAc(b1-4)]Gal(b1-4)Glc
# Procedure, shortened: as §1
# [28] = biological target: Neu5Ac(a2-8)Neu5Ac(a2-8)Neu5Ac(a2-8)Neu5Ac(a2-3)[GalNAc(b1-4)]Gal(b1-4)Glc
# Procedure, shortened: as §1
# [29] = biological target: Neu5Ac(a2-8)Neu5Gc(a2-3)Gal(b1-4)GlcNAc
# Procedure, shortened: as §1
# [30] = biological target: Neu5Ac(b2-6)Gal(b1-4)GlcNAc
# Procedure, shortened: as §1
# [31] = biological target: Neu5Ac(b2-6)GalNAc
# Procedure, shortened: as §1
# [32] = biological target: Neu5Ac9Ac(a2-3)Gal(b1-3)GlcNAc
# Procedure, shortened: as §1
# [33] = biological target: Neu5Ac9Ac(a2-3)Gal(b1-4)GlcNAc
# Procedure, shortened: as §1
# [34] = biological target: Neu5Ac9Ac(a2-6)Gal(b1-4)GlcNAc
# Procedure, shortened: as §1
# [35] = biological target: Neu5Gc(a2-3)Gal(b1-3)GlcNAc
# Procedure, shortened: as §1
# [36] = biological target: Neu5Gc(a2-3)Gal(b1-3)[Fuc(a1-4)]GlcNAc
# Procedure, shortened: as §1
# [37] = biological target: Neu5Gc(a2-3)Gal(b1-4)Glc
# Procedure, shortened: as §1
# [38] = biological target: Neu5Gc(a2-3)Gal(b1-4)GlcNAc
# Procedure, shortened: as §1
# [39] = biological target: Neu5Gc(a2-3)Gal(b1-4)GlcNAc(b1-3)Gal(b1-4)GlcNAc(b1-2)Man(a1-3)[Neu5Gc(a2-3)Gal(b1-4)GlcNAc(b1-3)Gal(b1-4)GlcNAc(b1-2)Man(a1-6)]Man(b1-4)GlcNAc(b1-4)GlcNAc
# Procedure, shortened: as §1
# [40] = biological target: Neu5Gc(a2-3)Gal(b1-4)[Fuc(a1-3)]GlcNAc
# Procedure, shortened: as §1
# [41] = biological target: Neu5Gc(a2-6)Gal(b1-4)GlcNAc
# Procedure, shortened: as §1
# [42] = biological target: Neu5Gc(a2-6)GalNAc
# Procedure, shortened: as §1
# [43] = biological target: Neu5Gc(a2-8)Neu5Ac(a2-3)Gal(b1-4)GlcNAc
# Procedure, shortened: as §1
# [44] = biological target: Neu5Gc(a2-8)Neu5Gc(a2-3)Gal(b1-4)GlcNAc
# Procedure, shortened: as §1
# [45] = biological target: Neu5Gc(a2-8)Neu5Gc(a2-3)Gal(b1-4)GlcNAc(b1-3)Gal(b1-4)GlcNAc
# Procedure, shortened: as §1
binder,measurement,setting,value
B1,glycan array binding signal (z-score),[1],-0.571
same,glycan array binding signal (z-score),[2],-0.056
same,glycan array binding signal (z-score),[3],0.022
same,glycan array binding signal (z-score),[4],-0.035
same,glycan array binding signal (z-score),[5],-0.452
same,glycan array binding signal (z-score),[6],-0.116
same,glycan array binding signal (z-score),[7],-0.366
same,glycan array binding signal (z-score),[8],-0.272
same,glycan array binding signal (z-score),[9],0.253
same,glycan array binding signal (z-score),[10],-0.153
same,glycan array binding signal (z-score),[11],0.403
same,glycan array binding signal (z-score),[12],-0.424
same,glycan array binding signal (z-score),[13],-0.106
same,glycan array binding signal (z-score),[14],0.072
same,glycan array binding signal (z-score),[15],-0.95
same,glycan array binding signal (z-score),[16],-0.74
same,glycan array binding signal (z-score),[17],0.174
same,glycan array binding signal (z-score),[18],0.068
same,glycan array binding signal (z-score),[19],0.525
same,glycan array binding signal (z-score),[20],-0.109
same,glycan array binding signal (z-score),[21],0.086
same,glycan array binding signal (z-score),[22],-0.288
same,glycan array binding signal (z-score),[23],0.363
same,glycan array binding signal (z-score),[24],-0.365
same,glycan array binding signal (z-score),[25],-1.08
same,glycan array binding signal (z-score),[26],-0.422
same,glycan array binding signal (z-score),[27],-0.087
same,glycan array binding signal (z-score),[28],0.912
same,glycan array binding signal (z-score),[29],-0.269
same,glycan array binding signal (z-score),[30],-0.385
same,glycan array binding signal (z-score),[31],0.412
same,glycan array binding signal (z-score),[32],0.102
same,glycan array binding signal (z-score),[33],-0.338
same,glycan array binding signal (z-score),[34],-0.733
same,glycan array binding signal (z-score),[35],-0.439
same,glycan array binding signal (z-score),[36],-0.403
same,glycan array binding signal (z-score),[37],0.324
same,glycan array binding signal (z-score),[38],-0.728
same,glycan array binding signal (z-score),[39],1.06
same,glycan array binding signal (z-score),[40],0.122
same,glycan array binding signal (z-score),[41],0.291
same,glycan array binding signal (z-score),[42],-0.606
same,glycan array binding signal (z-score),[43],-0.813
same,glycan array binding signal (z-score),[44],-0.422
same,glycan array binding signal (z-score),[45],-0.459
